Laboratory results as given in the supplement of paper PMC3334620.
The full ranking holds about 33,000 sequences; the median of “E-score (-0.5 to 0.5)” is about -0.053, and the highest 2% start at about 0.37. Some of the results follow.

Each sequence was assayed against Hap1 (UniProt P0CE41) (assay: PBM E-score (8-mer binding enrichment) (E-score (-0.5 to 0.5)); higher = stronger / more preferred TF binding; most listed sequences are background and not binding sites). Details: protein concentration: 200 nM; construct: GST-DNA-binding domain.
In short: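 Full-length yeast transcription factors or their DNA-binding domains, GST-tagged and expressed with PURExpress, were applied at about 100-200 nM to universal all-10-mer Agilent arrays. These arrays had been made double-stranded by primer extension on fresh or once-stripped slides. Detection used fluorescent anti-GST, normalisation used masliner, and E-scores for ungapped eight-base words pooled with reverse complements came from the Universal PBM Analysis Suite.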

Chain of UniProt P0CE41 (P0CE41 whole entry, the tested form may be a part): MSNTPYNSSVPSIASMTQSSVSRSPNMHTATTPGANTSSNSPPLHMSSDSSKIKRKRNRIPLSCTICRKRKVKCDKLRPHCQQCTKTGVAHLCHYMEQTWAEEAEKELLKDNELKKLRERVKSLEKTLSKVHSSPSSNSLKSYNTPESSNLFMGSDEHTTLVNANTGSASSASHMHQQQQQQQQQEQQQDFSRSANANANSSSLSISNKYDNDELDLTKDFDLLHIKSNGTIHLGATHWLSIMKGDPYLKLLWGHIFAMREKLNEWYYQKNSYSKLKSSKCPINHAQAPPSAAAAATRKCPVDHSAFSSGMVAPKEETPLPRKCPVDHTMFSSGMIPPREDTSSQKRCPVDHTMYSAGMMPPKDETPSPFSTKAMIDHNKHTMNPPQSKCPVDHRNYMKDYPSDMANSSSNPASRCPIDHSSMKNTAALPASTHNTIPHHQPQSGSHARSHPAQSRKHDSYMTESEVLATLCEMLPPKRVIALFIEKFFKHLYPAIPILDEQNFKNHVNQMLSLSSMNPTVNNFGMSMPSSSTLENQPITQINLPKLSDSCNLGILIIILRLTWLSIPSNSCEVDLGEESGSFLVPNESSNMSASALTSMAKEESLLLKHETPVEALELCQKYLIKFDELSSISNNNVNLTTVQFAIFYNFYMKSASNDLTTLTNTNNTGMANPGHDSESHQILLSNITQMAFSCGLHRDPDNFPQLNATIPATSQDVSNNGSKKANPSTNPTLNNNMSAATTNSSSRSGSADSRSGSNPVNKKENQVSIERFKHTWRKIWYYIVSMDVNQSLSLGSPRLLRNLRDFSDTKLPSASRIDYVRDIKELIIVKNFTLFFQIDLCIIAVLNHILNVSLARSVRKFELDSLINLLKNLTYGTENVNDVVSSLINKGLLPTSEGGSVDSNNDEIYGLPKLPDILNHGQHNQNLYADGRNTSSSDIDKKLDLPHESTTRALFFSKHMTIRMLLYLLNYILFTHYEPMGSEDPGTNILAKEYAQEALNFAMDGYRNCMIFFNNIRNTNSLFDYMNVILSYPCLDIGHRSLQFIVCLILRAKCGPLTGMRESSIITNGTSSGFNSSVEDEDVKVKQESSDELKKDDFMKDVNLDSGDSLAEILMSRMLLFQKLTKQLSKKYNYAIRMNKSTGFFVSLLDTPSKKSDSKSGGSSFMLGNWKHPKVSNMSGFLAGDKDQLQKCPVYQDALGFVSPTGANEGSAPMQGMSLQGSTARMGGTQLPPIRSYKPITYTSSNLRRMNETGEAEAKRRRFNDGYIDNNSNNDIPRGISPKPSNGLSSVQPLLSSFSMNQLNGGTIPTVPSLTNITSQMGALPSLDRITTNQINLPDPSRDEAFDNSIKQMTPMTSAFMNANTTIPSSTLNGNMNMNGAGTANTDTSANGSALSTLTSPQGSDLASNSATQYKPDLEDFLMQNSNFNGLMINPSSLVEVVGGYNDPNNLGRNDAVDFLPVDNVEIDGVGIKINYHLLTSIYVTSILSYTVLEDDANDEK

Sequence | PBM E-score
GGAAAGAC | 0.043
AGTCCAAG | -0.404
TCTATTAA | -0.153
GCAATACC | 0.129
AGGACAAC | -0.109
GCGACCTA | -0.0619
CCTAAGCG | -0.0345
GCTGGTGA | -0.112
CCGTGCCA | -0.0065
CACGAAAC | -0.0981
GGCAAAAC | 0.0215
CCTCCAAC | -0.0637
ACGATATA | -0.0495
CACAGAAG | -0.247
TCATCCGA | 0.368
TAGCAGCA | -0.239
CCGACGCG | 0.337
ACATGCTC | -0.0584
ATATAAGC | 0.0118
TAATGGGA | -0.212
AACGCCCT | -0.167
ACGCTCGG | 0.375
CGGAGGAG | 0.284
CAACAGCG | -0.0733
CAAATCGC | -0.0116

Sequence | PBM E-score
GAGGGACC | -0.172
CTTAAGTC | 0.231
CAAGGAGA | -0.0638
AAAACGAT | -0.0918
CCGAACCG | 0.363
AGCGACAT | -0.154
ATTATACA | -0.0599
GGATGCAC | -0.0496
GCCGGCAC | 0.327
AGTTGGTC | -0.068
ATTCGAAA | 0.0308
GGGGCCAC | 0.103
ATTACAGG | 0.16
ATGACAGA | -0.228
ACATATAA | -0.079
GTTAGCCA | -0.0632
AACTACGT | -0.0565
CTTGCGGA | 0.244
ATGTGTGC | -0.104
CATAACGA | -0.0283
TAGTGCAA | -0.118
CGCAATAA | 0.242
ATCTAAGA | -0.182
ACGTAACA | -0.237
GGACCGAA | 0.338

Sequence | PBM E-score
AAGGGAAC | -0.155
ACGGCCGT | 0.373
CTGGTAGC | -0.23
CATAGTCG | -0.0973
CGTATTGA | -0.111
AAGAATGC | 0.0241
ACCCTCCG | 0.2
ACCGGACG | 0.421
GTGGTAAC | 0.0741
AGCGCTTG | 0.00543
CGTCAAAA | 0.0461
ATATGGAA | -0.0148
CCTCACAA | -0.0933
AATCTCGT | 0.0299
TAAAAATA | -0.0678
ATGAAGTA | -0.175
AGTTCAGC | -0.188
CGATTGGA | -0.0771
GTCGTCAA | -0.144
GAATATAC | 0.168
AACAACAG | -0.0686
CAAGGACA | -0.33
AATCGACG | -0.0455
ATATCTTG | -0.173
ACTATAAA | 0.0867

Sequence | PBM E-score
GGGCACTA | -0.0489
ACAGAAAG | -0.246
AGAGTGTC | -0.0226
ATATGCAT | 0.0135
AGCACATG | -0.0601
CAGGTCCC | -0.0239
GTATAGTA | 0.11
CTCAAAGA | -0.0984
GGCGGTGA | -0.0339
ACCTTTAC | -0.0295
TAACTTAA | 0.0501
CGCGCCCA | 0.113
TATCAACA | -0.196
ACGGCTAA | -0.0732
GCAGTCGA | -0.088
AACAGTGC | -0.162
GAGACAAA | -0.046
CTTAATAA | 0.187
GAAATAAC | 0.221
CACGAGTG | -0.259
AAGTCTAG | -0.155
ACCATGAC | -0.0287
ACACAGTA | -0.288
ATTTGACC | -0.00252
GCAAGGAC | -0.115

Sequence | PBM E-score
GCACCTGA | -0.245
AAGACAAC | 0.0544
GCGGAAAA | 0.286
AATCTAAA | 0.0392
CTGATATC | 0.26
AGATGAGA | -0.0579
ACCCTGAT | -0.139
AACGATGG | -0.152
ACAGAACT | -0.196
ACTTTGAA | -0.108
GTCGAACA | -0.165
CAGTAGTC | -0.138
CACCGCTC | 0.0982
ATCACCAC | 0.0204
ATAAGGGC | 0.203
ACTTAGCG | 0.0778
AGGCAAAC | -0.239
GTGCACGA | -0.252
CAGAGAGG | -0.228
GGAGTGAC | 0.0168
CCTTCTCG | -0.0912
ATGATATG | 0.0492
AGAAGGGG | -0.267
CATCCTTA | -0.362
CCTGCGCG | -0.0141

Sequence | PBM E-score
CCGCCTCA | 0.173
ATTGACTA | -0.199
CCAGGGAG | -0.436
CTCTTGGA | -0.237
GAAATCTC | 0.167
GGCCGTCA | 0.074
ATTTGATG | 0.078
ACGCTCTG | -0.28
CCACCATA | -0.0659
GTCTCCCA | -0.159
ACATTCAC | -0.0901
ACGTTAAC | -0.0133
CGAAGATA | 0.199
ATGGGTGC | -0.124
CTTCGTGA | -0.258
AGGAGTCC | -0.0161
AGGATCTC | -0.0515
AAACACTC | -0.0701
CTGCACAA | -0.193
CAACCGAC | 0.136
AGCACACA | -0.298
TCTGCACA | -0.11
GACTGTTA | -0.287
CTGTTCCA | -0.331
AAGCAGGC | -0.172

Sequence | PBM E-score
ATCATCCG | 0.339
GACGGCCC | 0.0353
ACCCGGCT | 0.28
TCGGCACA | 0.279
CCGAGTTA | 0.271
AAGGGTAA | -0.142
GATGGTCA | 0.00252
AAATCAGG | -0.227
CCAGAGGA | -0.19
ACACGAGG | -0.144
CCGAACGC | 0.311
CCTCCGAG | 0.335
TGCAAGAA | -0.184
GAATGGAA | -0.0233
GGATCGGA | 0.384
CTTAGATC | -0.0657
CTGAACAA | -0.102
CGAAATCG | 0.281
ACGTCGGA | 0.256
ACAGCTGA | -0.173
AGAATTAT | 0.0541
CGCGCCGC | 0.228
CATGGACG | 0.039
CTGTGCCA | -0.156
CGCTCCCG | -0.0431

Sequence | PBM E-score
ACCAACCC | -0.105
ACTGCTCC | 0.134
AGTCGGGC | 0.157
GGAGCTGA | 0.0448
AACGCGTG | -0.148
CTTCCTCC | -0.109
AGGTTCAG | -0.1
CTTAAAAA | -0.197
AAGTCACC | -0.118
CTAAGCTA | -0.032
CGCAGCGA | 0.027
CGCGCGTC | 0.185
ATTGTCGC | -0.00025
ATATGAGG | -0.195
CGAAGCCC | 0.102
GGCCACAA | -0.0502
AAGCAGTG | -0.0692
GAAACGGA | 0.277
CGCAGGCC | 0.0139
CCGGCACG | 0.214
GGGTCCCA | -0.0688
CGGCTAAG | 0.149
CTCGAGGC | -0.175
AAAGCTAG | -0.14
CCCCGCAG | 0.176

Sequence | PBM E-score
ACGAAAAA | -0.167
CCTCTATA | -0.246
ACGGCTAG | -0.114
GGTGACTA | -0.018
CCTGATGC | 0.0859
AACCCATT | 0.0904
ACTGTATG | -0.0283
CGGCCAGA | 0.225
CACGTCAC | -0.125
GGGATCCA | 0.146
CGTGTAGA | -0.0941
CAATATAA | 0.105
TGCGAGCA | -0.103
CGTACGGC | -0.00145
ATATAACG | 0.115
AGGTGACG | -0.117
AAGAGTCG | -0.0788
CCCGAGAA | 0.351
ATTGAACA | -0.00279
ATACCCAG | -0.148
GTTAGAGA | -0.34
AATTCCCA | -0.191
CTCTACTC | -0.144
AAACTAGA | -0.198
AGAACTTA | 0.0839

Sequence | PBM E-score
CTTTCGAA | -0.0674
ATAGGTAC | -0.0096
AGACCATG | -0.302
ACCTAGGG | -0.126
CGAACAAC | 0.122
ATAATACA | 0.0148
CGTCAGCC | 0.15
GATGAACC | 0.0878
GATGGGCC | 0.126
ATAGTCCG | 0.369
AGTCATAG | -0.203
TAAGAGAA | -0.265
TGAACACA | -0.203
GATGGCTA | -0.0372
AACTTCAC | -0.166
CCCTTTCG | 0.169
AGGCTAGC | -0.205
AGTTCTAG | -0.0549
CAGCCAAG | -0.236
AACTGGGG | -0.0566
ATGTAACG | 0.0594
AAAGACAC | -0.0224
ATACTACC | 0.0678
GAGTTCAC | 0.00848
AAAAAGCA | -0.314

Sequence | PBM E-score
TACCAATA | -0.178
AAAGGATG | -0.197
AAAGTCAC | -0.126
CCACATAG | -0.0279
TCACTACA | -0.0802
CCCCCTAA | -0.234
CAGTAAGG | -0.213
CTTAGCGC | 0.159
AAACGAAT | -0.133
AGAACGAC | -0.168
ACCGTGCT | -0.22
GGACCGCC | 0.138
CGCTCGAC | -0.218
CTCCTGAC | -0.0691
TCGGATCA | 0.353
CAGGTATG | -0.00123
AGTATTGG | -0.245
AAACGTAA | -0.179
ATATCACA | -0.238
AGATGGTA | -0.0212
CAAGGGAC | -0.154
CACGGGTA | -0.0714
AGCGTCTG | -0.203
ACCCTTAG | -0.23
TATTCAGA | -0.194

Sequence | PBM E-score
ATCGTTCC | 0.0969
CTGCTAAA | 0.0489
GCGGGACA | 0.132
AGTTACAT | -0.157
CGTGGCGC | 0.0338
CCCGGACA | 0.39
CTTATGTA | -0.215
ATCCAGCC | 0.133
TAACGTAA | -0.102
ACACGCGA | -0.0698
TAGATTCA | -0.188
GTGCGTCA | -0.0789
CAACTAGC | 0.0186
CTTTTAAC | 0.0176
GTGCCGTA | 0.1
GGTACGCA | -0.152
CGGACAGA | 0.333
CACGAGAC | -0.188
CCGAACTA | 0.324
ATTCAGAG | -0.00668
GTCGGTCA | 0.278
ACGCCTAG | -0.223
AAACGGTT | -0.089
CGGGTCAC | 0.0515
CGTATCAG | 0.00494

Sequence | PBM E-score
AGAATCGA | -0.191
AAAGTCCG | 0.446
AGACTGAA | -0.191
CCCGTTCG | 0.241
ACCTCCAT | -0.0591
AACTTGGT | -0.119
CCGCCAAC | 0.204
GTGAGAAA | 0.0981
CCACGGGG | 0.105
AAAGAGTT | -0.286
GTTAGAAA | 0.0116
AAACAACC | -0.118
GCCGTACA | 0.0272
CCCGCATA | 0.124
AGAGAGGA | -0.217
ATTTCTGC | 0.0483
CTTAAGCA | -0.116
ACCGTTAG | 0.11
AGCCAATG | -0.225
AATATGAC | -0.0304
CCTATTAA | -0.123
CTCTCAGA | -0.332
ACTCGTGG | -0.235
CAGATAAC | 0.132
GAGGAGGA | -0.303

Sequence | PBM E-score
CCCTGCCG | 0.0797
AATTATTG | -0.0617
ACCGGTAA | 0.406
GTGTCGTA | -0.162
ACATGGAG | -0.0668
GAGCTCCA | -0.148
ATAATTAA | 0.0307
AGCATCAC | -0.209
ACAAGTGT | -0.17
ACGATCTG | -0.144
AGCAGGGC | -0.116
GCACCGCC | 0.138
GCATGAAA | -0.228
CGCCCTGA | -0.116
CTGGTATC | -0.056
AAGACATT | -0.0784
GATCGGTA | 0.283
ACATTCCT | -0.0932
CATCTCTA | -0.154
